The shares of active, inactive and inconclusive entries below differ from those in the screen. For some of these results: Where the call is inconclusive, the potency comes from a doubtful curve fit. Activity calls are given as the source filed them. The call rests on the fitted dose curve; in most records, active means well fitted curve in the direction sought with a large enough effect; inconclusive means small, poorly fitted or top-dose-only effect, or another doubt; inactive means no such curve, though single readings can be large; an effect the other way counts as inactive or inconclusive.
Assays:
[1] = system: CRL-7250; assay: Cytotoxic Profiling of Annotated Libraries Using Quantitative High-Throughput Screening (AID 1296008); conditions: Five cell lines viability, CellTiter-Glo ATP luminescence, 48-72 h; max response: active compounds read low; further: nearly all actives have a fitted effect of over 60% in size; on max response: on the % scale 0 is the no-effect control and ±100 the full control effect
In short: (§1)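 Compounds were pin-transferred onto cells and incubated 48 or 72 hr at 37 degree Celsius, 95% humidity. CellTiter-Glo was added, plates sat 10 min at room temperature, then ATP-coupled luminescence was imaged as the viability read-out.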

[2] = system: HEK293; assay: as above; conditions: Five cell lines viability, CellTiter-Glo ATP luminescence, 48-72 h; max response: active compounds read low
In short: as §1

[3] = system: HaCat; assay: as above; conditions: Five cell lines viability, CellTiter-Glo ATP luminescence, 48-72 h; max response: active compounds read low
In short: as §1

[4] = system: NIH3T3; assay: as above; conditions: Five cell lines viability, CellTiter-Glo ATP luminescence, 48-72 h; max response: active compounds read low
In short: as §1

[5] = system: CASKI; assay: Primary qHTS to identify gynecologic anti-cancer compounds using libraries of approved drugs and bioactive compounds (AID 1345084); conditions: Gynecologic cancer cell panel viability, ATPlite luminescence, 48 h; activity change, negative = cytotoxicity: at 57.5 µM (top of the series); further: nearly all actives have a fitted effect of over 55% in size; on activity change, negative = cytotoxicity: on the % scale 0 is the no-effect control and ±100 the full control effect
In short: (§2)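 Measured: luminescence after ATPlite addition (15 min, RT). Exposure: 48 h, 37 C, 5% CO2.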

[6] = system: Es-2; assay: as above; conditions: Gynecologic cancer cell panel viability, ATPlite luminescence, 48 h; series mostly up to 57.5 µM
In short: as §2

[7] = system: HeLa; assay: as above; conditions: Gynecologic cancer cell panel viability, ATPlite luminescence, 48 h; series mostly up to 57.5 µM
In short: as §2

[8] = system: Hek293T; assay: as above; conditions: Gynecologic cancer cell panel viability, ATPlite luminescence, 48 h, control line for the selectivity index; series mostly up to 57.5 µM
In short: as §2

[9] = system: PA-1; assay: as above; conditions: Gynecologic cancer cell panel viability, ATPlite luminescence, 48 h; series mostly up to 57.5 µM
In short: as §2

[10] = system: SKOV3; assay: as above; conditions: Gynecologic cancer cell panel viability, ATPlite luminescence, 48 h; series mostly up to 57.5 µM
In short: as §2

[11] = system: Tov-21-G; assay: as above; conditions: Gynecologic cancer cell panel viability, ATPlite luminescence, 48 h; activity change, negative = cytotoxicity: at 57.5 µM (top of the series)
In short: as §2

[12] = P-glycoprotein substrates identified in KB-8-5-11 adenocarcinoma cell line, qHTS therapeutic library screen (AID 1346987); further: nearly all actives have a fitted effect of over 65% in size
In short: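 P-gp-mediated resistance screen: KB-8-5-11 cells treated 72 h with compounds in dose-response. CellTiter-Glo viability.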

[13] = Primary qHTS for inhibitors of nuclear receptor binding SET domain protein 2 (NSD2) in an RCH-ACV wild type WT cells (2C) (AID 1645877); conditions: activity change, negative = cell killing: at 44.9 µM (top of the series); further: nearly all actives have a fitted effect of over 70% in size
[14] = system: JEG-3; assay: Primary qHTS to identify gynecologic anti-cancer compounds using libraries of approved drugs and bioactive compounds (AID 1345084); conditions: Gynecologic cancer cell panel viability, ATPlite luminescence, 48 h; series mostly up to 57.5 µM; further: nearly all actives have a fitted effect of over 55% in size; on activity change, negative = cytotoxicity: on the % scale 0 is the no-effect control and ±100 the full control effect
In short: as §2

[15] = system: CAOV3; assay: as above; conditions: Gynecologic cancer cell panel viability, ATPlite luminescence, 48 h; series mostly up to 57.5 µM
In short: as §2

[16] = system: C33A; assay: as above; conditions: Gynecologic cancer cell panel viability, ATPlite luminescence, 48 h; series mostly up to 57.5 µM
In short: as §2

[17] = system: OV90; assay: as above; conditions: Gynecologic cancer cell panel viability, ATPlite luminescence, 48 h; series mostly up to 57.5 µM
In short: as §2

[18] = system: Tov112D; assay: as above; conditions: Gynecologic cancer cell panel viability, ATPlite luminescence, 48 h; activity change, negative = cytotoxicity: at 57.5 µM (top of the series)
In short: as §2

[19] = Primary qHTS for inhibitors of nuclear receptor binding SET domain protein 2 (NSD2) in an isogenic RCH-ACV NSD2 p.E1099K mutant (9B) (AID 1645876); further: nearly all actives have a fitted effect of over 70% in size
Potency means the concentration at half of the fitted maximal effect; tags describe the fitted curve by direction and shape.

Q: Which results are given for CC(=O)O[C@@]12CO[C@@H]1C[C@H](O)[C@@]1(C)C(=O)[C@H](O)C3=C(C)[C@@H](OC(=O)[C@H](O)[C@@H](NC(=O)OC(C)(C)C)c4ccccc4)C[C@@](O)([C@@H](OC(=O)c4ccccc4)C12)C3(C)C (stereo partly drawn)?
A: Potency [1]: active: 0.005 µM; Potency [2]: inconclusive: 0.0009 µM [inhibitor, full curve, poor fit]; Potency [3]: inconclusive: 0.005 µM [inhibitor, full curve, poor fit]; Potency [4]: active: 0.0224 µM; Potency [5]: inconclusive: 0.0316 µM; Potency [6]: inconclusive: 0.126 µM [cytotoxic, full curve, poor fit]; Potency [7]: inconclusive: 0.01 µM; Potency [8]: inconclusive: 0.0025 µM; Potency [9]: inconclusive: 0.0316 µM; Potency [10]: inconclusive: 0.631 µM; Potency [11]: inconclusive: 25.1 µM [cytotoxic, partial curve, poor fit]

Q: What does the source list for O=C(NCc1cccc(O)c1)Nc1nc(-c2ccncc2)cs1?
A: Potency [12]: inconclusive: 5.8 µM [inhibitor, partial curve]; Potency [13]: active: 2.35 µM; Potency [1]: inconclusive: 2.31 µM [inhibitor, partial curve, poor fit]; max response [2]: inactive: -21.2%; Potency [3]: inconclusive: 29.1 µM [inhibitor, single point]; Potency [4]: inconclusive: 11.6 µM [inhibitor, partial curve, poor fit]; Potency [7]: inconclusive: 15.8 µM [cytotoxic, partial curve, poor fit]; Potency [14]: inactive; Potency [10]: inactive

Q: For CC(=O)CC(=O)Nc1ccc(Cl)c(C(F)(F)F)c1, which Potency [12] is on record?
A: Its Potency is inconclusive: 20.6 µM [inhibitor, single point].

Q: And the Potency [1]?
A: Its Potency is inconclusive: 20.6 µM [inhibitor, single point].

Q: What about the Potency [2] of the same compound?
A: Its Potency is inconclusive: 25.9 µM [inhibitor, single point].

Q: And the Potency [3]?
A: Its Potency is inconclusive: 0.206 µM [inhibitor, full curve, poor fit].

Q: What about the Potency [4] of the same compound?
A: The Potency was inconclusive: 11.6 µM [inhibitor, partial curve, poor fit].

Q: What about the Potency [15] of the same compound?
A: The Potency was inconclusive: 11.2 µM [rising, partial curve, poor fit].

Q: And the Potency [10]?
A: The Potency was inconclusive: 0.794 µM [rising, full curve, poor fit].

Q: With Fc1ccc(-n2cc(CCCCN3CCC4(CC3)OCc3ccccc34)c3ccccc32)cc1 as the compound, how does the Potency [12] read?
A: The Potency was inconclusive: 16.4 µM [inhibitor, single point].

Q: And the Potency [1]?
A: The Potency was inconclusive: 29.1 µM [inhibitor, single point].

Q: And the Potency [2]?
A: The Potency was active: 18.4 µM.

Q: What about the Potency [3] of the same compound?
A: The Potency was inconclusive: 25.9 µM [inhibitor, partial curve, poor fit].

Q: And the Potency [16]?
A: The Potency was inconclusive: 31.6 µM [cytotoxic, single point].

Q: And the Potency [15]?
A: Its Potency is inconclusive: 25.1 µM [cytotoxic, partial curve, poor fit].

Q: What about the Potency [17] of the same compound?
A: The Potency was inconclusive: 10 µM [cytotoxic, partial curve, poor fit].

Q: What about the Potency [9] of the same compound?
A: Its Potency is inconclusive: 31.6 µM [cytotoxic, single point].

Q: And the Potency [10]?
A: Its Potency is inconclusive: 25.1 µM [cytotoxic, partial curve, poor fit].

Q: And the Potency [18]?
A: Its Potency is inconclusive: 20 µM [cytotoxic, partial curve].

Q: For CN(C)c1nc(NC2CCC(NCCc3ccc(Br)cc3OC(F)(F)F)CC2)nc2ccccc12 (stereo not drawn), which Potency [12] is on record?
A: Its Potency is active: 4.61 µM.

Q: And the Potency [19]?
A: Its Potency is active: 3.65 µM.

Q: And the Potency [1]?
A: Its Potency is active: 18.4 µM.

Q: And the Potency [2]?
A: Its Potency is active: 5.17 µM.

Q: And the Potency [3]?
A: Its Potency is inconclusive: 29.1 µM [inhibitor, single point].

Q: What about the Potency [16] of the same compound?
A: Its Potency is inconclusive: 39.8 µM [cytotoxic, single point].

Q: And the Potency [15]?
A: Its Potency is active: 3.98 µM.

Q: What about the Potency [5] of the same compound?
A: Its Potency is inconclusive: 35.5 µM [cytotoxic, single point].

Q: What about the Potency [6] of the same compound?
A: Its Potency is inconclusive: 39.8 µM [cytotoxic, single point].

Q: And the Potency [7]?
A: The Potency was inconclusive: 35.5 µM [cytotoxic, single point].

Q: And the Potency [8]?
A: The Potency was active: 25.1 µM.

Q: What about the Potency [14] of the same compound?
A: The Potency was active: 20 µM.

Q: What about the Potency [17] of the same compound?
A: Its Potency is active: 14.1 µM.

Q: What about the Potency [9] of the same compound?
A: The Potency was inconclusive: 20 µM [cytotoxic, partial curve, poor fit].

Q: And the Potency [10]?
A: Its Potency is active: 14.1 µM.

Q: And the Potency [11]?
A: The Potency was inconclusive: 31.6 µM [cytotoxic, single point].

Q: What about the Potency [18] of the same compound?
A: Its Potency is inconclusive: 28.2 µM [cytotoxic, single point].

Q: What does the source list for N#Cc1ccc(COc2ccc(-c3cccc4nc(NC(=O)C5CC5)nn34)cc2)cn1?
A: Potency [12]: inconclusive: 18.4 µM [inhibitor, single point]; Potency [19]: inconclusive: 2.05 µM [inhibitor, full curve]; Potency [13]: inconclusive: 3.65 µM [inhibitor, full curve]; Potency [1]: inconclusive: 11.6 µM [inhibitor, partial curve]; Potency [2]: inconclusive: 9.2 µM [inhibitor, partial curve, poor fit]; Potency [3]: inconclusive: 14.6 µM [inhibitor, partial curve, poor fit]; Potency [16]: inconclusive: 1.12 µM [cytotoxic, full curve, poor fit]; Potency [15]: active: 22.4 µM; Potency [9]: inactive; Potency [10]: inconclusive: 39.8 µM [cytotoxic, single point]; Potency [18]: inconclusive: 28.2 µM [cytotoxic, partial curve]

Q: For Cc1cnc(Nc2ccc(F)cc2Cl)nc1-c1c[nH]c(C(=O)NC(CO)c2cccc(Cl)c2)c1 (stereo not drawn), which Potency [12] is on record?
A: Its Potency is active: 3.66 µM.

Q: What about the max response [1] of the same compound?
A: Its max response is inactive: -0.447%.

Q: And the Potency [2]?
A: Its Potency is active: 5.8 µM.

Q: What about the Potency [3] of the same compound?
A: Its Potency is inconclusive: 6.51 µM [inhibitor, single point].

Q: What about the Potency [15] of the same compound?
A: The Potency was “inactive”.

Q: What about the Potency [7] of the same compound?
A: Its Potency is inconclusive: 25.1 µM [cytotoxic, partial curve].

Q: And the Potency [17]?
A: The Potency was inconclusive: 5.62 µM [cytotoxic, single point].

Q: And the Potency [9]?
A: The Potency was active: 8.91 µM.

Q: What about the Potency [10] of the same compound?
A: The Potency was “inactive”.

Q: And the Potency [11]?
A: The Potency was inconclusive: 1.58 µM [cytotoxic, full curve].

Q: Which results are given for O=C(Nc1ccc(C(O)(C(F)(F)F)C(F)(F)F)cc1)c1ccc(C(F)(F)F)cc1?
A: Potency [12]: active: 18.4 µM; Potency [19]: active: 5.78 µM; Potency [1]: inconclusive: 29.1 µM [inhibitor, single point]; Potency [2]: active: 10.3 µM; Potency [3]: active: 8.2 µM; Potency [16]: inconclusive: 39.8 µM [cytotoxic, single point]; Potency [15]: inconclusive: 39.8 µM [cytotoxic, single point]; Potency [5]: inconclusive: 15.8 µM [cytotoxic, partial curve]; Potency [6]: inconclusive: 39.8 µM [cytotoxic, single point]; Potency [7]: inconclusive: 39.8 µM [cytotoxic, single point]; Potency [8]: inconclusive: 28.2 µM [cytotoxic, single point]; Potency [17]: inconclusive: 12.6 µM [cytotoxic, partial curve]; Potency [9]: inconclusive: 14.1 µM [cytotoxic, partial curve, poor fit]; Potency [10]: inconclusive: 11.2 µM [cytotoxic, partial curve, poor fit]; Potency [11]: inconclusive: 39.8 µM [cytotoxic, single point]; Potency [18]: inconclusive: 39.8 µM [cytotoxic, single point]

Q: For COC(C(=O)N1Cc2[nH]nc(NC(=O)c3ccc(N4CCN(C)CC4)cc3)c2C1)c1ccccc1 (stereo not drawn), which Potency [12] is on record?
A: The Potency was inconclusive: 18.4 µM [inhibitor, single point].

Q: What about the Potency [1] of the same compound?
A: Its Potency is active: 1.84 µM.

Q: And the Potency [2]?
A: The Potency was active: 1.64 µM.

Q: What about the Potency [3] of the same compound?
A: Its Potency is active: 5.8 µM.

Q: What about the Potency [15] of the same compound?
A: Its Potency is active: 1.41 µM.

Q: And the Potency [5]?
A: Its Potency is inconclusive: 3.98 µM [cytotoxic, full curve, poor fit].

Q: And the Potency [7]?
A: The Potency was inconclusive: 0.794 µM [cytotoxic, full curve, poor fit].

Q: What about the Potency [8] of the same compound?
A: Its Potency is inconclusive: 28.2 µM [cytotoxic, single point].

Q: What about the Potency [17] of the same compound?
A: The Potency was inconclusive: 28.2 µM [cytotoxic, single point].

Q: What about the Potency [10] of the same compound?
A: The Potency was active: 17.8 µM.

Q: And the Potency [11]?
A: Its Potency is active: 12.6 µM.

Q: And the Potency [18]?
A: Its Potency is inconclusive: 0.891 µM [cytotoxic, full curve, poor fit].

Reference: PubChem BioAssay (NCATS)
